# According to PubChem BioAssay AID1508642 (National Center for Advancing Translational Sciences (NCATS), 2021):
# Out of some 43,000 compounds screened, about 200 (0.47%) were called active. Inconclusive results (about 12%) are left out. Calls follow the shape of the dose curve; as a rule, active = well fitted cell-killing curve with a large enough effect; inconclusive = small, poorly fitted or top-dose-only effect, or effect the other way; inactive = flat fitted curve, though single readings scatter. The list shows a part of the results.
# Assay: Cell viability qHTS assay in S16 Pmp22-F2sN cells; also: nearly all actives have a fitted effect of over 65% in size
# Settings: S16 Pmp22-F2sN Schwann cells viability, CellTiter-Glo, 24 h; series mostly up to 57.5 µM; activity change, negative = cytotoxicity: at the top concentration
# Summary of the method: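 S16 Pmp22-F2sN Schwann cells (500-1,000/well) in phenol-red-free DMEM with 10% FBS received 23 nL compound by pin tool for 24 h at 37 °C. Viability was then read as CellTiter-Glo luminescence after 15 min at room temperature.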
# % is scaled to controls: 0 for no effect and ±100 for the full control effect.
row,SMILES,"activity change, negative = cytotoxicity"
1,Cc1ccn2c(Nc3ccccc3C)c(-c3ccncc3)nc2c1,inactive: -0.598%
2,CCN(CCN(C)C)C(=O)Cn1ncc2c([nH]c3ccc(C)cc32)c1=O,inactive: 18.2%
3,Cc1ccc(CNC(=O)C2CCN(Cc3nc(-c4ccccc4C)oc3C)CC2)cc1,inactive: 0.388%
4,CCCCn1c(CN2CCN(c3ccc(OC)cc3)CC2)nc2c1c(=O)[nH]c(=O)n2C,inactive: -3.18%
5,Cc1cccc(NC(=O)CSc2nnc(CNC(=O)c3cccc(C)c3)n2-c2ccccc2)c1,inactive: -1.29%
6,CCOc1ccc(CNC(=O)CCC(=O)N2Cc3ccccc3Oc3ncccc32)cc1,inactive: 13.2%
7,Cc1ccc2nc(CSc3nnc(NC(=O)CC(C)C)s3)cc(=O)n2c1,inactive: 7.85%
8,O=C(Nc1ccc(OC(F)(F)F)cc1)c1cc2c(=O)n3ccccc3nc2s1,inactive: -14.8%
9,CCS(=O)(=O)N1CCc2cc(C(=O)Nc3cc([N+](=O)[O-])ccc3C)ccc21,inactive: 2.83%
10,CCOc1ccccc1NC(=O)c1ccc2c(c1)CCN2S(C)(=O)=O,inactive: -9.39%
11,COc1cc(C2c3c(-c4cc(C)ccc4O)n[nH]c3C(=O)N2Cc2cccnc2)cc(OC)c1OC (stereo not drawn),inactive: -3.33%
12,Cc1ccc(-n2c(SCC(=O)N3CCc4ccccc43)nc3c([nH]c4ccccc43)c2=O)cc1,inactive: 1.72%
13,CCn1cc2nc(SCC(=O)Nc3cc(OC)ccc3OC)n(Cc3ccc(Cl)cc3)c(=O)c2n1,inactive: 22.1%
14,O=C(NC1CCCCC1)c1ccc2c(c1)N(Cc1ccccc1F)C(=O)c1ccccc1S2,inactive: -8.45%
15,Cn1c(=O)c(=O)n(C)c2cc(S(=O)(=O)N3CCCC3C(=O)Nc3cccc(F)c3)ccc21 (stereo not drawn),inactive: 2.28%
16,O=C(CCn1c(=O)c2cccn2c2cccnc21)N1CCN(c2ccc(F)cc2)CC1,inactive: -3.84%
17,COc1ccccc1CCNC(=O)Cn1ccc2cc(S(=O)(=O)N3CCCCC3)ccc21,inactive: -14.1%
18,CCCC(=O)Nc1nnc(SCc2cc(=O)n3ccccc3n2)s1,inactive: -10.2%
19,Cc1cc(NC(=O)c2ccccc2F)ccc1-c1nc2ccccc2s1,inactive: -2.04%
20,Cc1ccc(-n2cnc3cc(C(=O)NCCC4=CCCCC4)ccc32)c(C)c1,inactive: -15.3%
21,Cc1cccc(C)c1OCC(=O)N(Cc1ccccc1F)C1CCS(=O)(=O)C1 (stereo not drawn),inactive: 0.48%
22,CCc1ccc(NC(=O)c2sc(-n3nc(C)c(CCC(C)C)c3C)nc2C)cc1,inactive: -7.14%
23,COc1ccc(C(=O)N2CC(=O)Nc3ccc(Br)cc3C2c2ccc(F)cc2)cc1OC (stereo not drawn),inactive: -16.4%
24,CCOC(=O)Cc1ccc(NC(=O)N(Cc2ccc(OC)cc2)C2CCN(C(C)=O)CC2)cc1,inactive: -0.535%

row,SMILES,"activity change, negative = cytotoxicity"
1,CCOC(=O)c1c(NC(=O)/C(C#N)=C/c2ccc(OC)cc2)sc2c1CCC2,inactive: -1.46%
2,CC(=O)c1ccc(S(=O)(=O)Nc2ccc(-c3cn4c(C)csc4n3)cc2)cc1,inactive: 13.7%
3,CCOC(=O)c1c(NC(=O)c2ccc(C)cc2)sc2c1CCCCC2,inactive: 13.6%
4,COc1ccc(C)cc1NC(c1nnc(-c2ccccc2)o1)c1ccc(F)cc1Cl (stereo not drawn),inactive: 0.623%
5,CCc1ccc(N2CC(c3nnc(NC(=O)c4ccco4)s3)CC2=O)cc1 (stereo not drawn),inactive: -6.03%
6,N#Cc1ccccc1NC(=O)CSc1nc(-c2ccccc2)cc(C(F)(F)F)c1C#N,inactive: -5.48%
7,O=C(NC1CC(=O)N(c2ccc(F)cc2)C1)C1CCCC1 (stereo not drawn),inactive: 5.96%
8,Cc1ccc(Cc2cnc(NC(=O)c3ccc4c(c3)CC(c3ccccc3)OC4=O)s2)cc1 (stereo not drawn),inactive: 4.15%
9,Cc1c(C(=O)Nc2ccc(F)cc2F)oc2c1-c1nn(Cc3c(F)cccc3Cl)cc1CC2,inactive: -2.35%
10,Cc1ccc(Nc2nc(-c3ccccc3)nc3ccccc23)cc1,inactive: 18.2%
11,COc1cc(Cl)c(C)cc1NC(=O)c1cc(S(=O)(=O)N2CCCC2)ccc1F,inactive: -1.67%
12,O=C(Cn1c(-c2cccs2)cc2ccccc21)N1CCN(c2ccc(Cl)cc2)CC1,inactive: 8.34%
13,CCOc1ccc(C2C(C(=O)Nc3ccccc3)=C(C)Nc3nc(-c4ccccc4)nn32)cc1OC (stereo not drawn),inactive: -1.2%
14,COc1cccc(-c2csc(-c3c(N)c(C(=O)c4ccc5c(c4)OCO5)n4ccccc34)n2)c1,inactive: 29%
15,CCNC(=O)c1ccc(C)c(-n2c(C)nc3cccnc32)c1,inactive: -0.39%
16,Cc1ccc(NC(=O)Cn2c(=O)c3ccc(Cl)cc3n3nncc23)cc1,inactive: 7.72%
17,COc1ccc(OC)c(NC(=O)C(C)n2c(=O)cc(C)c3c(C)nn(-c4ccccc4)c32)c1 (stereo not drawn),inactive: 2.21%
18,O=c1c2cnn(-c3ccc(F)cc3)c2ncn1Cc1ccccc1Cl,inactive: 4.66%
19,Cc1ccc(CNC(=O)c2c[nH]c3ccc(S(=O)(=O)N4CCOCC4)cc3c2=O)cc1,inactive: -3.17%
20,Cc1cc(C)n(CCc2nc3c4ccccc4nc(SCc4ccc(F)cc4)n3n2)n1,inactive: -1.26%
21,COc1ccc(-c2cn3c(n2)sc2cc(C(=O)NCCC4=CCCCC4)ccc23)cc1,inactive: 15%
22,Cc1ccc(CN(Cc2ccco2)C(=O)c2ccccc2Br)o1,inactive: -2.67%
23,CCCOc1cccc(C2c3c(oc4ccc(F)cc4c3=O)C(=O)N2CCCN2CCOCC2)c1 (stereo not drawn),inactive: 25.7%
24,CC(C)c1nn2c(=O)cc(COC(=O)C3CCCCC3)nc2s1,inactive: -0.918%
